Data published in the supplement of paper PMC12217912.
The list shows a part of the results. The full chains were built here from the parent and the listed change. Values near 0.05 are background.

B1: TEV protease; numbered along this chain (parent)
chain: MGESLFKGPRDYNPISSSICHLTNESDGHTTSLYGIGFGPFIITNKHLFRRNNGTLVVQSLHGVFKVKDTTTLQQHLVDGRDMIIIRMPKDFPPFPQKLKFREPQREERICLVTTNFQTKSMSSMVSDTSCTFPSGDGIFWKHWIQTKDGQCGSPLVSTRDGFIVGIHSASNFTNTNNYFTSVPKNFMELLTNQEAQQWVSGWRLNADSVLWGGHKVFMVKPEEPFQPVKEATQL

Variants of: B1
Assay: raw area under fraction-flipped curve 0-4 h after induction (AUC4h, not background-subtracted), DNA-recorder readout of cleavage of the substrate (dimensionless); higher = more cleavage of the substrate by the protease variant
Settings: temperature: 34 °C; time window: 0-4 h after rhamnose induction
Experimental: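 In vivo DNA recorder in E. coli TOP10(DE3) ΔrhaA at 34 °C. Each TEVp single-site mutant (parent TEVp 0) is paired with a single-site variant of the 7-mer TEVs (canonical ENLYFQ|S). The substrate sits between flexible linkers in a Bxb1-sfGFP-TEVs-SsrA fusion, so cleavage stabilises Bxb1 and speeds flipping of a recombination array, read by NGS. The value is the raw area under the fraction-flipped curve over 0-4 h after rhamnose induction (AUC4h), with ≥20 reads per time point. It is not background-subtracted; inactive controls average about 0.047.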
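Also: Bxb1 expression induced with 0.2% (w/v) L-rhamnose at OD600 near 0.5, cultures sampled hourly, flipped fraction per protease–substrate barcode pair counted by paired-end Illumina sequencing.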

Variant	area with substrate ENLYFQC	area with substrate ENLYFQF	area with substrate ENLYFQH	area with substrate ENLYFQK	area with substrate ENLYFQL	area with substrate ENLYFQM	area with substrate ENLYFQN	area with substrate ENLYFQP	area with substrate ENLYFQR	area with substrate ENLYFQS	area with substrate ENLYFQT	area with substrate ENLYFQV	area with substrate ENLYFQY	area with substrate ENLYFQD	area with substrate ENLYFQG	area with substrate ENLYFQI	area with substrate ENLYFQQ	area with substrate ENLYFQW	area with substrate ENLYFQE
R109P	0.0885	0.0949	0.0956	0.0628	0.0554	0.072	0.076	0.0671	0.0529	0.0959	0.0759	0.0592	0.0789	–	–	–	–	–	–
H76E	0.0938	–	0.0649	0.0622	–	0.0775	0.0653	0.0543	0.0384	0.0793	–	0.0536	0.0636	0.0648	0.0802	0.0505	0.0464	0.0685	–
P104Y	0.0533	–	0.0661	0.0527	0.0526	0.0557	0.058	0.0545	–	0.0523	0.0558	0.0535	0.0535	0.0524	–	0.0509	–	0.0479	–
M122K	0.136	–	–	–	0.0657	0.0902	0.121	–	0.0537	0.11	0.0744	–	0.0589	0.0744	–	–	–	0.0581	0.0823
R81I	0.138	–	0.0898	0.0585	0.0675	0.0771	0.0711	0.0686	–	0.115	–	0.07	0.0775	0.0716	–	0.0496	–	0.0504	–
T132F	0.0732	–	–	0.033	0.0417	0.0515	0.0573	–	0.0502	0.0591	–	0.066	0.0486	–	–	–	0.0259	–	–
E103Y	0.0898	–	0.0743	–	–	–	–	–	–	0.0931	0.0654	0.0545	–	–	0.0958	–	0.0521	–	–
E103K	0.0929	0.0681	0.109	–	–	0.0823	0.0684	0.0688	0.0507	0.0885	0.0609	–	0.0723	–	–	–	–	0.0604	–
T72P	0.0755	0.0588	0.0805	0.0675	0.0613	0.0732	0.0652	0.0473	–	0.0787	0.0366	0.0568	0.0714	0.0623	0.0687	0.0472	0.0525	–	–
I86F	0.11	0.0661	0.0751	–	0.0479	–	0.0641	0.0488	0.0488	0.0927	–	–	0.071	–	0.0851	0.0546	–	0.0811	0.0416
S123T	0.13	0.0655	0.0814	0.0672	0.0565	0.1	0.0816	0.0593	0.0552	0.106	0.0677	–	0.0666	–	0.0817	0.048	0.067	0.0676	–
K100W	0.0924	0.0892	0.0748	–	–	–	–	0.0561	0.0605	0.0982	0.0662	0.0686	0.0602	0.0521	0.0847	–	0.0713	0.0814	–
V113C	0.12	0.0681	0.0713	0.0758	0.0755	–	0.0797	0.0718	0.0612	0.106	0.0674	–	0.0872	0.0723	–	0.0579	–	0.0559	–
I110H	0.0614	–	0.0433	0.0536	0.0704	0.0367	0.0579	0.0449	0.0514	0.0584	0.0619	–	0.0624	0.0749	0.059	0.0707	–	0.0475	–
K66R	0.127	–	–	–	–	–	0.0659	–	0.0713	0.114	0.0574	0.0788	0.0953	0.0779	–	0.0298	–	0.0676	–
L77T	0.0764	–	0.072	–	0.056	0.0591	0.0606	–	0.067	0.0684	0.0619	0.0597	–	–	0.0763	–	0.0656	0.0592	–
S121Y	0.117	–	0.0669	0.0533	0.0559	0.0926	–	0.0339	0.0748	0.104	0.0502	–	0.0688	–	–	–	–	0.0733	0.067
S121E	0.119	0.0924	0.0042	–	–	0.0624	–	–	0.0674	0.101	–	–	–	0.0445	–	0.0632	–	–	–
I85K	0.0641	0.0467	0.0312	–	0.0527	0.0703	–	0.0473	0.0353	0.0571	0.0622	0.0366	–	–	–	–	0.0484	0.0511	0.06
I85C	0.0926	0.081	0.0683	–	0.051	0.0685	0.0436	0.0441	0.0573	0.0797	0.0601	–	0.0586	0.0614	–	0.0668	–	0.0581	–
D91C	0.164	0.0565	–	–	0.0411	0.0536	–	0.0595	0.0648	0.0998	0.0664	0.0652	–	–	0.108	0.0636	–	0.0616	–
G63M	0.0778	–	0.0827	–	0.0424	0.0662	–	0.0403	0.0654	0.0885	0.0649	–	0.076	–	–	0.0748	–	0.0352	–
Q105K	0.098	0.095	–	0.0683	0.0634	0.0824	0.0784	0.0629	0.0527	0.111	0.0562	0.0742	0.0747	0.0942	0.115	0.0638	0.0763	0.0723	0.0781
Q105N	0.0994	0.0825	0.0864	–	0.0629	0.105	0.0857	0.0555	0.0613	0.114	0.067	0.0494	0.0769	0.0804	0.136	0.0518	–	0.0624	–
Q118G	0.133	0.0677	0.0815	0.0566	–	0.112	0.0821	–	0.0545	0.109	0.0771	0.0689	0.0807	0.0905	0.0976	0.0667	–	–	–
V78A	0.0965	0.0614	0.0582	–	0.0555	0.0755	–	0.0513	0.0546	0.0705	0.0526	–	0.0471	–	–	0.053	–	0.0574	0.0613
P94E	0.119	–	0.0631	0.0717	0.0612	0.102	0.0854	–	0.0593	0.102	0.0663	0.0813	0.081	0.127	–	0.0629	–	–	–
